Data from the supplement of paper PMC10369915.
The list shows a part of the results. No stated cut-off is given here; in the data, active = 3.2 or more and inactive = the rest. Most of these values are background signal.

Each binder was assayed against SHP2 C-SH2 domain E139D (assay: enrichment score (SH2-bound / input frequency) (ratio); bacterial display of known human phosphotyrosine sites (pTyr-Var adds point mutants) read by sequencing; higher = stronger binding; tyrosines were phosphorylated by kinases first). Conditions: peptide library: pTyr-Var.
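Further: displayed peptides selected on beads carrying the immobilized SH2 domain, with library peptides lacking any tyrosine serving as negative controls.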

Enrichment score, inactive:
LRNIDYHRLDG [ATRX_Y2083_Y2084H] 0.707
LRNIDYFRLDG [ATRX_Y2083_YF] 2.2
RRAVKYLQMVG [AVPR2_Y117_C112R] 0.435
CRAVKYLQMVR [AVPR2_Y117_G122R] 0.759
CWAVKYLQMVG [AVPR2_Y117_R113W] 2.69
QMVDMYASSYM [AVPR2_Y124_G122D] 1.4
QMVGKYASSFM [AVPR2_Y124_M123K_YF] 1.1
QMVGMYAFSFM [AVPR2_Y124_S126F_YF] 0.712
QMVGMYASFFM [AVPR2_Y124_S127F_YF] 0.905
QMVGMYASSSM [AVPR2_Y124_Y128S] 0.684
QMVGMYASSFM [AVPR2_Y124_YF] 0.586
SDMGQYQCLVF [AXL_Y115_T112M] 0.786
KFEDVYVGICL [B3GALNT1_Y269] 0.895
KFADVYVGICL [B3GALNT1_Y269_E266A] 0.994
ALEKTYNTYRS [B4GALNT2_Y538] 0.657
ALEKTYNTFRS [B4GALNT2_Y538_YF] 0.701
VSRGRYRPQEC [B4GALT4_Y113] 0.243
RREWYYEVIIV [BACE1_Y260] 0.258
RREWFYEVIIA [BACE1_Y260_V265A_YF] 0.281

What follows are binders tested against SHP2 C-SH2 domain wild-type in the same assay as above. Conditions: peptide library: pTyr-Var.

Enrichment score, inactive:
LRNIDYHRLDG [ATRX_Y2083_Y2084H] 0.997
RRAVKYLQMVG [AVPR2_Y117_C112R] 0.382
CRAVKYLQMVR [AVPR2_Y117_G122R] 0.885
CWAVKYLQMVG [AVPR2_Y117_R113W] 3.16
QMVDMYASSYM [AVPR2_Y124_G122D] 0.704
QMVGKYASSFM [AVPR2_Y124_M123K_YF] 0.921
QMVGMYAFSFM [AVPR2_Y124_S126F_YF] 1.02
QMVGMYASFFM [AVPR2_Y124_S127F_YF] 1.41
QMVGMYASSSM [AVPR2_Y124_Y128S] 0.471
QMVGMYASSFM [AVPR2_Y124_YF] 0.865
SDMGQYQCLVF [AXL_Y115_T112M] 0.915
KFEDVYVGICL [B3GALNT1_Y269] 0.989
KFADVYVGICL [B3GALNT1_Y269_E266A] 1.8
ALEKTYNTYRS [B4GALNT2_Y538] 0.914
ALEKTYNTFRS [B4GALNT2_Y538_YF] 0.645
VSRGRYRPQEC [B4GALT4_Y113] 0.242
RREWYYEVIIV [BACE1_Y260] 0.249
RREWFYEVIIA [BACE1_Y260_V265A_YF] 0.279

Enrichment score, active:
LRNIDYFRLDG [ATRX_Y2083_YF] 4.44

These binders were tested against SHP2 N-SH2 domain L43F in the same assay as above. Conditions: peptide library: pTyr-Var.

Enrichment score, inactive:
LRNIDYHRLDG [ATRX_Y2083_Y2084H] 1.12
LRNIDYFRLDG [ATRX_Y2083_YF] 0.923
RRAVKYLQMVG [AVPR2_Y117_C112R] 0.442
CRAVKYLQMVR [AVPR2_Y117_G122R] 0.698
CWAVKYLQMVG [AVPR2_Y117_R113W] 3.1
QMVDMYASSYM [AVPR2_Y124_G122D] 0.785
QMVGKYASSFM [AVPR2_Y124_M123K_YF] 0.955
QMVGMYAFSFM [AVPR2_Y124_S126F_YF] 1.07
QMVGMYASFFM [AVPR2_Y124_S127F_YF] 1.28
QMVGMYASSSM [AVPR2_Y124_Y128S] 0.706
QMVGMYASSFM [AVPR2_Y124_YF] 0.704
SDMGQYQCLVF [AXL_Y115_T112M] 0.769
KFEDVYVGICL [B3GALNT1_Y269] 0.724
KFADVYVGICL [B3GALNT1_Y269_E266A] 1.23
ALEKTYNTYRS [B4GALNT2_Y538] 0.748
ALEKTYNTFRS [B4GALNT2_Y538_YF] 0.635
VSRGRYRPQEC [B4GALT4_Y113] 0.273
RREWYYEVIIV [BACE1_Y260] 0.243
RREWFYEVIIA [BACE1_Y260_V265A_YF] 0.312

The binders below were run against SHP2 N-SH2 domain T42A in the same assay as above. Conditions: peptide library: pTyr-Var.

Enrichment score, inactive:
LRNIDYHRLDG [ATRX_Y2083_Y2084H] 0.886
LRNIDYFRLDG [ATRX_Y2083_YF] 1.41
RRAVKYLQMVG [AVPR2_Y117_C112R] 0.386
CRAVKYLQMVR [AVPR2_Y117_G122R] 1.48
CWAVKYLQMVG [AVPR2_Y117_R113W] 2.97
QMVDMYASSYM [AVPR2_Y124_G122D] 1.02
QMVGKYASSFM [AVPR2_Y124_M123K_YF] 0.844
QMVGMYAFSFM [AVPR2_Y124_S126F_YF] 0.694
QMVGMYASFFM [AVPR2_Y124_S127F_YF] 1.24
QMVGMYASSSM [AVPR2_Y124_Y128S] 0.746
QMVGMYASSFM [AVPR2_Y124_YF] 0.463
SDMGQYQCLVF [AXL_Y115_T112M] 0.829
KFEDVYVGICL [B3GALNT1_Y269] 0.72
KFADVYVGICL [B3GALNT1_Y269_E266A] 0.996
ALEKTYNTYRS [B4GALNT2_Y538] 0.768
ALEKTYNTFRS [B4GALNT2_Y538_YF] 0.5
VSRGRYRPQEC [B4GALT4_Y113] 0.214
RREWYYEVIIV [BACE1_Y260] 0.271
RREWFYEVIIA [BACE1_Y260_V265A_YF] 0.186

These binders were tested against SHP2 N-SH2 domain T52S in the same assay as above. Conditions: peptide library: pTyr-Var.

Enrichment score, inactive:
LRNIDYHRLDG [ATRX_Y2083_Y2084H] 0.876
LRNIDYFRLDG [ATRX_Y2083_YF] 0.861
RRAVKYLQMVG [AVPR2_Y117_C112R] 0.479
CRAVKYLQMVR [AVPR2_Y117_G122R] 0.819
CWAVKYLQMVG [AVPR2_Y117_R113W] 2.55
QMVDMYASSYM [AVPR2_Y124_G122D] 1.06
QMVGKYASSFM [AVPR2_Y124_M123K_YF] 0.84
QMVGMYAFSFM [AVPR2_Y124_S126F_YF] 0.854
QMVGMYASFFM [AVPR2_Y124_S127F_YF] 1.35
QMVGMYASSSM [AVPR2_Y124_Y128S] 0.611
QMVGMYASSFM [AVPR2_Y124_YF] 0.489
SDMGQYQCLVF [AXL_Y115_T112M] 0.76
KFEDVYVGICL [B3GALNT1_Y269] 0.882
KFADVYVGICL [B3GALNT1_Y269_E266A] 1.77
ALEKTYNTYRS [B4GALNT2_Y538] 0.655
ALEKTYNTFRS [B4GALNT2_Y538_YF] 0.756
VSRGRYRPQEC [B4GALT4_Y113] 0.201
RREWYYEVIIV [BACE1_Y260] 0.331
RREWFYEVIIA [BACE1_Y260_V265A_YF] 0.154

These binders were tested against SHP2 N-SH2 domain wild-type in the same assay as above. Conditions: peptide library: pTyr-Var.

Enrichment score, inactive:
LRNIDYHRLDG [ATRX_Y2083_Y2084H] 0.987
LRNIDYFRLDG [ATRX_Y2083_YF] 0.87
RRAVKYLQMVG [AVPR2_Y117_C112R] 0.341
CRAVKYLQMVR [AVPR2_Y117_G122R] 0.733
CWAVKYLQMVG [AVPR2_Y117_R113W] 3.08
QMVDMYASSYM [AVPR2_Y124_G122D] 0.741
QMVGKYASSFM [AVPR2_Y124_M123K_YF] 1.03
QMVGMYAFSFM [AVPR2_Y124_S126F_YF] 1.01
QMVGMYASFFM [AVPR2_Y124_S127F_YF] 1.41
QMVGMYASSSM [AVPR2_Y124_Y128S] 0.417
QMVGMYASSFM [AVPR2_Y124_YF] 0.807
SDMGQYQCLVF [AXL_Y115_T112M] 1.18
KFEDVYVGICL [B3GALNT1_Y269] 1.04
KFADVYVGICL [B3GALNT1_Y269_E266A] 1.68
ALEKTYNTYRS [B4GALNT2_Y538] 0.807
ALEKTYNTFRS [B4GALNT2_Y538_YF] 0.812
VSRGRYRPQEC [B4GALT4_Y113] 0.211
RREWYYEVIIV [BACE1_Y260] 0.225
RREWFYEVIIA [BACE1_Y260_V265A_YF] 0.133
